Measurements published in publication PMC12136788.
Some of the results follow.

B1: chr18:80415450:80415451:+_ENSMUSG00000057130_ENSMUST00000145963|mus_mus|FALSE|FALSE (ssRNA)
RNA: GGGAGUUCUACAGUCCGACGAUCGUACAUCUUGUUGAAGUCAGGCACUUCUGUAAUAUCCACAAGAUAAAUAACUGCAAAAUUUUUAACCUUUUCGGCGAUGCUGUACAGAACCUCGUCCAUCUUCAUGCAAGUGGGGUCCCACAACAGAGGAUUGAGCAUCA
B2: chr3:10015032:10015033:+_ENSMUSG00000027533_ENSMUST00000029046|mus_mus|mus_mus_mus_hu_True|18_108 (ssRNA)
RNA: GGGAGUUCUACAGUCCGACGAUCGUUGUUGCCAUCACAAGUGAUGAUACAAUCUGGCUUGGCCAUUGCGCCCAUUUUUCGCAAAGCUAUUCCCACUCCUAGCUCCUUCAUGUAUUCCUCAAAGCCGUUGCUGUCCACCAGGCGCAACAGAGGAUUGAGCAUCA
B3: chr2:202488911:202488912:-_ENSG00000155755_ENST00000286196|hu_mus|hu_hu_hu_mus_False|1_58 (ssRNA)
RNA: GGGAGUUCUACAGUCCGACGAUCAUUGAAACAUUUUUCAUAAUCUCCAGUAGCAUUUCAGCAUUAUGUAACAAAAGAUCUAUUACAAAUACAUGUAUCUUAUAAAAAUACACUUAAAAACACGAGUGGGGAGCGCACAAAUACCAACAGAGGAUUGAGCAUCA
B4: chr17:45747064:45747065:+_ENSG00000108424_ENST00000290158|hu_hu|hu_hu_hu_mus_True|58_98 (ssRNA)
RNA: GGGAGUUCUACAGUCCGACGAUCGCCCACAGUCCACGCAGCUGUAUCUCGAACAACUACACUGGGGUCUUUCAUUAAUUCUAUUAGGGUGGGCAUAGCCUGUAUGACUAAUGGUUUCAGUUGAUUAGGCUCUGGUCCUUCCAACAACAGAGGAUUGAGCAUCA
B5: chr5:128440902:128440903:+_ENSG00000066583_ENST00000173527|hu_mus|hu_hu_hu_mus_True|1_88 (ssRNA)
RNA: GGGAGUUCUACAGUCCGACGAUCUUGAACGGUGCUGCCAAGUCCUUUAGGGUAUUGUUCCGUUAUGAUAACUGGAAUCCCUAAGAUCCGAGCUCCUUGCAACAGUCUCUGUCCCACACUAAUGAUGUCCCCAAAGUACUUGAUCAACAGAGGAUUGAGCAUCA
B6: chr17:72008250:72008251:+_ENSMUSG00000041057_ENSMUST00000047086|mus_mus|FALSE|FALSE (ssRNA)
RNA: GGGAGUUCUACAGUCCGACGAUCCCAUUUAUAGACAAAUAACAACUGUACAUCAGUCGCUCCAGCAGCUUGCCCAACAUGCCCUUCCCGCUUCGGCUGGGCAGCCUGCUCUGCCCCGGUGGAAGUCCUCCCAGAGAGCAUUCUCAACAGAGGAUUGAGCAUCA
B7: chr3:159597999:159598000:+_ENSMUSG00000028173_ENSMUST00000068952|mus_mus|motif|central (ssRNA)
RNA: GGGAGUUCUACAGUCCGACGAUCAGCAAGAAGUUAAAAAAAGCUUUUAGGACCCAAAGGCCAUUUAAUACCAGAAAUCCGGUUUGGGUAGUUAAGCAAAUAUUUCUCAAAAUCCACAAACAAACAGACAGAUUAGUAUCAAAUCAACAGAGGAUUGAGCAUCA
B8: chr11:68582865:68582866:-_ENSG00000110090_ENST00000265641|hu_hu|motif|central (ssRNA)
RNA: GGGAGUUCUACAGUCCGACGAUCCUUGAAUCUGAUGAACUUCUUUUUCCAGGAAUGAAGUCCAGAGAGAUAGAUUUGUCGGAGAGCUUCAUGGCUCAGCCGCAGGUCAAUCCCGUCCGGAGUGACCGUGAACUGAAAGGCCACCAACAGAGGAUUGAGCAUCA
B9: 120496184_120496304_2506_CDS_ENSG00000134250_ENST00000256646|human|control|control (ssRNA)
RNA: GGGAGUUCUACAGUCCGACGAUCAGUACACCUGUAUCCAUUCACCAGAUUGUCACAAGUUCCUCCAUUCUGGCAUGGAUUCGAAAGGCAUUCAUUUUUGUCCACUUCACAGUUGAUGCCAACCCAGCCUGCAUCACAGAGACACAACAGAGGAUUGAGCAUCA
B10: chr18:33956166:33956167:-_ENSMUSG00000024376_ENSMUST00000025234|mus_mus|motif|central (ssRNA)
RNA: GGGAGUUCUACAGUCCGACGAUCCUUGGAUUUGGUUUUAGUUUGGGGUGAGGGAGAUUGUGGGAAAGGCCACAGUUCAACCGGAGGAGUUAAGGGUAGAGCUUGGCAAGCACUAUCACUGAGCAGUCUACCCCCCAACUGAACCAACAGAGGAUUGAGCAUCA
B11: chr9:91949571:91949572:+_ENSG00000187742_ENST00000375807|hu_hu|motif|central (ssRNA)
RNA: GGGAGUUCUACAGUCCGACGAUCAAUGUGUUUUUCUUUGUUGUAGGAAGGAUCCGAAGAUAAAGCUUCAGAAGAUGGUAUACGGACAUUUUUAGGAUCUGCUGAUGAAGCAAUGGUCUUUAAGUUUAUCAUAGAAGUAACAUUCAACAGAGGAUUGAGCAUCA
B12: 46276008_46277766_3720_CDS_ENSG00000124151_ENST00000372004|human|control|control (ssRNA)
RNA: GGGAGUUCUACAGUCCGACGAUCUCGGCUCUGAUUCAAAAACUGCUGGCCCUGCAGCCUCUGCUGAAGCUGCAUUCUAAGUUGCUUGGGGGUGUUUGUCCGGGGUCUCAUGAUGUUGGCUCGUGGGUGCAUUCCUUGGAGAGGCAACAGAGGAUUGAGCAUCA
B13: chr2:118749752:118749753:+_ENSMUSG00000040007_ENSMUST00000036578|mus_hu|FALSE|FALSE (ssRNA)
RNA: GGGAGUUCUACAGUCCGACGAUCAAUAUAAGGAGAUCCAAGUCCCUUCCCUUCAGGUUUGGGAUCAGGCUUCCCAAGCAUAAAUUCACCUCUGAAGCCUCCAGGCCUCACCCAAACCCAAUGACCAAUCAGGAGCAACUCAUCCAACAGAGGAUUGAGCAUCA
B14: chr1:220276048:220276049:+_ENSG00000067704_ENST00000302637|hu_hu|hu_hu_hu_mus_True|8_48 (ssRNA)
RNA: GGGAGUUCUACAGUCCGACGAUCGCAAAUUGCCUGGUUGGCGGGAAUUGUCCAAGGCUGGGUGGUCCAAACUAAAACGCUAACAGGAGAUGAACCAUCUGUAAGAGACUCCAACUUCGGAGGAGGUUUUAAGAGAGGGAAUCUCAACAGAGGAUUGAGCAUCA

These binders were tested against T1, UNK ZnF1-3 (human, UniProt Q9C0B0 31-174) (assay: nsRBNS (natural sequence RNA bind-n-seq); RBNS binding buffer (assumed for nsRBNS): 25 mM Tris pH 7.5, 150 mM KCl, 3 mM MgCl2, 0.01% Triton X-100, 500 ug/ml BSA, 20 U/ml SUPERase-In, 4 C; UNK is unkempt and MSI1 is Musashi-1; names of the RNAs are library labels; protein concentration not given here; high values mean tight binding).
T1 sequence: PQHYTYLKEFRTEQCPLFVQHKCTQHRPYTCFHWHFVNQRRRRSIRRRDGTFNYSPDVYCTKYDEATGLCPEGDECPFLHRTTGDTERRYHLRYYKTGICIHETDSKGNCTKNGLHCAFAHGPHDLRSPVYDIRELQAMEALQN

Row | Binder | binding signal [enrichment R]
1 | B1 | 1.02
2 | B2 | 0.753
3 | B3 | 1.46
4 | B4 | 0.787
5 | B5 | 0.729
6 | B6 | 0.986
7 | B7 | 2.13
8 | B8 | 0.298
9 | B9 | 0.981
10 | B10 | 1.07
11 | B11 | 0.869
12 | B12 | 0.834
13 | B13 | 0.919
14 | B14 | 1.77
